Some of the results follow.

The target in the assay is T1, OsWOX13 (Oryza sativa, UniProt Q5QMM3 1-267).
T1 sequence: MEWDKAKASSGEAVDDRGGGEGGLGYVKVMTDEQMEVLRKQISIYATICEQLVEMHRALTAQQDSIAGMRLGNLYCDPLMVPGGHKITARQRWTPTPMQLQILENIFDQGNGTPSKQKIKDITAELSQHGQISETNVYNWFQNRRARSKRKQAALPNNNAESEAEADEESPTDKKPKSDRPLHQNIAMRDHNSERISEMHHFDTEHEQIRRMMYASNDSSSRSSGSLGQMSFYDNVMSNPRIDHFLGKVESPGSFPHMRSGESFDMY
Description: protein-binding microarray (RPBM); PBS, 2% BSA, 51.3 ng/ul salmon testes DNA, 50 uM zinc acetate, 200 nM TF, 25 C, 1 h; high values mean tight binding. As to conditions: protein: recombinant; tags: N-terminal polyhistidine and DsRed monomer fusion (pET32a); label: CyDye5-dUTP incorporated in the synthesized complementary strand; 3' TTTTT single-stranded linker to array surface; dsDNA, one strand shown. In a few lines:
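Binding signal is defined as the fluorescence intensity of each feature in arbitrary units, read on an Axon 4000B scanner. Transcription factors with N-terminal polyhistidine and DsRed fusions came from E. coli BL21-CodonPlus and were purified on Ni–NTA. They were incubated at 200 nM for 1 h at 25 °C on a custom Agilent array that had been made double-stranded with Cy5-dUTP, with 50 µM zinc acetate present, and the array was washed.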
“AAGGCTGATTATAAAATAATTCTGTAACTGCCTTGGCCTGCGGAGTCACCTAGTGCAG”: the binding signal is 29500 fluorescence intensity (a.u.).
The same measure for “GAGAATTTGGTGCTAATCACACTCCCTGCCATTGGAGGATCGGAGTCACCTAGTGCAG”: 4930 fluorescence intensity (a.u.).
Consider “TAAATTAGGACGGAATGACTTTGATTTTCACACATGCTGGCGGAGTCACCTAGTGCAG”, for which the binding signal is 8030 fluorescence intensity (a.u.).
Turning to “CTGTAAATAAATTAATTGAACTGCACGTTCATAATCATAACGGAGTCACCTAGTGCAG”, the binding signal was 14200 fluorescence intensity (a.u.).
Consider “TACTTATAAATTAATTTTAATTTTCTAATAAGCCAAATAACGGAGTCACCTAGTGCAG”, for which the binding signal was 24900 fluorescence intensity (a.u.).
Turning to “GGAGAATCTCAATTAGCTTGGGCAAAAGGCAAATTGGTCGCGGAGTCACCTAGTGCAG”, the binding signal is 3550 fluorescence intensity (a.u.).
As to “TAATTAATTAAATTTTAATTATTATGAACTTGAGAAATGACGGAGTCACCTAGTGCAG”, the binding signal was 39600 fluorescence intensity (a.u.).
With “TATAGATTAATTGATATAGTTGTATACAAATTTCAATTATCGGAGTCACCTAGTGCAG”, the binding signal was 26900 fluorescence intensity (a.u.).
The same measure for “TAATTAATACTGAATTAATTATGCGTTAATAGCCCATCTCCGGAGTCACCTAGTGCAG”: 19400 fluorescence intensity (a.u.); for “CATCTATATTACCTGTTCTAAATTTATATGGATAACTTAACGGAGTCACCTAGTGCAG”: 3370 fluorescence intensity (a.u.); for “AAATGTAATTAATCTGAAACAACCTCCGTAAACTTCCCAACGGAGTCACCTAGTGCAG”: 5580 fluorescence intensity (a.u.).
On to “CCATTATAAAACTAATAATCAATCTAAATGGATAGCGATCCGGAGTCACCTAGTGCAG”, for which the binding signal was 11200 fluorescence intensity (a.u.).
Turning to “CCATGACTGGTACTCCTTATCACAAGGAACATTTCTACCGCGGAGTCACCTAGTGCAG”, the binding signal is 21300 fluorescence intensity (a.u.).
As for “GCCGAAATGTACTAATTGTACGCGACGACGACTAGTTTATCGGAGTCACCTAGTGCAG”, the binding signal was 6770 fluorescence intensity (a.u.).
As for “CCATAATTAGCCATAAGTGCTACAGTAACCTACATGTGCTCGGAGTCACCTAGTGCAG”, the binding signal is 22900 fluorescence intensity (a.u.).
Turning to “ATTAAGCACTACGTCAGATATGATTGGCCATCATTGCATTCGGAGTCACCTAGTGCAG”, the binding signal was 7320 fluorescence intensity (a.u.).
Take “AATAAATAGACGACTATCCCCATTTTCTTACAAGTTACAACGGAGTCACCTAGTGCAG”: the binding signal is 9460 fluorescence intensity (a.u.).
With “TCACAATTGAATGCTTTGGAATATTGGCATTTTGTGATTGCGGAGTCACCTAGTGCAG”, the binding signal is 8490 fluorescence intensity (a.u.).
For the sequence “TTTGACCGTATCAAATTTTGATAAGACAATAAACTAAACGCGGAGTCACCTAGTGCAG”, the binding signal is 3560 fluorescence intensity (a.u.).
For “AAGATTGAAATAATCTGACATATAGGTCCCACGCTATCTCCGGAGTCACCTAGTGCAG”, the binding signal is 28900 fluorescence intensity (a.u.).
For “TCACCATCAATTACCTCGTGTAAACTTCCAATCCCCTTCCCGGAGTCACCTAGTGCAG”, the binding signal is 14800 fluorescence intensity (a.u.).
Regarding “GTTCAATTGAATGAGTAAAGTTAATGGATACCAATCTGCTCGGAGTCACCTAGTGCAG”, the binding signal was 14700 fluorescence intensity (a.u.).
In the case of “GCACTGTCAATTGCACAAAATTAAAGCAAGCATGTAGGTACGGAGTCACCTAGTGCAG”, the binding signal is 4720 fluorescence intensity (a.u.).
With “CTTGTACTAATTTACGCTCATCTGTCAAAGTTGTTTCACCCGGAGTCACCTAGTGCAG”, the binding signal is 11100 fluorescence intensity (a.u.).
Under “CTATGATTTATTAATTTTGGCGTAGTAGTGGATGGTAACACGGAGTCACCTAGTGCAG” stands 16200 fluorescence intensity (a.u.); under “CTTCATGCTGTCCCGTAATTACCAGATAATGAAAGTTGTACGGAGTCACCTAGTGCAG”, 6790 fluorescence intensity (a.u.); under “GCAAATGAAAATAATTTGTAAAATAAAACTTTTATATATGCGGAGTCACCTAGTGCAG”, 6110 fluorescence intensity (a.u.).
For “GAGATTGGTGGGAATTGGACCTCTTAATTTTCCATCCCAACGGAGTCACCTAGTGCAG”, the binding signal is 26100 fluorescence intensity (a.u.).
As for “CAATAATCAATATCCCACTTTAATTAGTAGGAAACACGAACGGAGTCACCTAGTGCAG”, the binding signal was 8110 fluorescence intensity (a.u.).
For “TATATACTAATTAGCTACATCGATCACTAGCTATAGCTAGCGGAGTCACCTAGTGCAG”, the binding signal is 16500 fluorescence intensity (a.u.).
Under “ATGCTTATGAACTCCGTGATTGATTGGTTCAGCGCAGTTGCGGAGTCACCTAGTGCAG” stands 38400 fluorescence intensity (a.u.).
“TACCAATTTAAATGTTTTATTGCTGTTTGGTTGCTATGCACGGAGTCACCTAGTGCAG”: the binding signal is 7560 fluorescence intensity (a.u.).
Turning to “ATTTGACGACCACCGTTATTTATGTCACCGGATTTGGCCACGGAGTCACCTAGTGCAG”, the binding signal is 6520 fluorescence intensity (a.u.).
Under “CCTGTAACTGAGAAATTAAAGTCTTTACTTATTTCTATTCCGGAGTCACCTAGTGCAG” stands 18900 fluorescence intensity (a.u.).
With “ATGATTTGCATGATTGCTTGCTTGCTTGCTGCTATGGCCACGGAGTCACCTAGTGCAG”, the binding signal was 62700 fluorescence intensity (a.u.).
Take “TAATTCTAATTTACAGCAGCGTTGTATTTAGTCATGTCCTCGGAGTCACCTAGTGCAG”: the binding signal was 5060 fluorescence intensity (a.u.).
Turning to “ATAACACGTGTTTAATTGATGTTACTATATATCATGCTGACGGAGTCACCTAGTGCAG”, the binding signal was 35000 fluorescence intensity (a.u.).
Consider “ATATGACATAATTAGCCAACTAATCACAAGGCAGTCCAGTCGGAGTCACCTAGTGCAG”, for which the binding signal is 42100 fluorescence intensity (a.u.).
Under “AAAAGCAAATTTAGTTTGATGGGATATATTACAGTGCAACCGGAGTCACCTAGTGCAG” stands 4520 fluorescence intensity (a.u.).
Consider “TTAACTATTTGTCAATCTTATAAGCGATAATTAAGGATCTCGGAGTCACCTAGTGCAG”, for which the binding signal is 12200 fluorescence intensity (a.u.).
The same measure for “TACGTTCTCTAATTAATTTGCCAGACAAAACAAAACATTACGGAGTCACCTAGTGCAG”: 14800 fluorescence intensity (a.u.); for “ACTAATTACACAGAATGCATGTAAATTACGAGACGAATCTCGGAGTCACCTAGTGCAG”: 31200 fluorescence intensity (a.u.); for “AATGTTCAATTCAGTGACAGATTGCAGGTTTGCATATATGCGGAGTCACCTAGTGCAG”: 4300 fluorescence intensity (a.u.).
The same measure for “GTAAGAGGGATATTTGGATAATTGGCAAACCTAACAGTGACGGAGTCACCTAGTGCAG”: 4000 fluorescence intensity (a.u.); for “CTAAATTCATTAACATTTATATGAATGTGGGCAATGCTAGCGGAGTCACCTAGTGCAG”: 8430 fluorescence intensity (a.u.).
Regarding “CAATTCTTGATTTGCCGTCCATTCCATCTAGCACCTAGCTCGGAGTCACCTAGTGCAG”, the binding signal is 13200 fluorescence intensity (a.u.).
Consider “TTTAGCATTGTTAAAACCTGTAGTTTTGTGCTAATGGATACGGAGTCACCTAGTGCAG”, for which the binding signal is 5650 fluorescence intensity (a.u.).
For the sequence “CTTATATTTGCAAATATTGATGGTTGTTGACATATGAACTCGGAGTCACCTAGTGCAG”, the binding signal is 3210 fluorescence intensity (a.u.).
Under “GCATTTCATTTGATTTAACACTTTTACCCCTTATCTCCAACGGAGTCACCTAGTGCAG” stands 5100 fluorescence intensity (a.u.); under “ATCATATTCAATCATCAAGACATGAACGATTTCTTTTAGTCGGAGTCACCTAGTGCAG”, 15400 fluorescence intensity (a.u.); under “GAAAAGTCTGCTCTTAATTGGAAGTATGTATGAGTATCAGCGGAGTCACCTAGTGCAG”, 4970 fluorescence intensity (a.u.).
As to “AAATTTAAATTTGAAGTTGATTTTAAGATATTTTCAACGTCGGAGTCACCTAGTGCAG”, the binding signal was 21000 fluorescence intensity (a.u.).
In the case of “TTCAATCCTAGAACACAAGTTGATTAGTTGAACAGGCAGCCGGAGTCACCTAGTGCAG”, the binding signal is 3460 fluorescence intensity (a.u.).
For “AAATGTAATTTTAAAATTAAAATTTCAAAATCTATAAACACGGAGTCACCTAGTGCAG”, the binding signal is 11300 fluorescence intensity (a.u.).

Source of the values: paper PMC7819943, “Rice protein-binding microarrays: a tool to detect cis-acting elements near promoter regions in rice”.
